± gives the standard error. This sample is rich in variants without activity.
B1: glmS ribozyme (parent)
chain: AUAAAAGCGCCAGAACUACAGAAAUGUAGUUGACGAGGAGGAGGUUUAUCGAAUUUUCGGCGGAUGCCUCCAAA

Tests used:
Settings in all cases: with glucosamine-6-phosphate
glucosamine-6-phosphate [1] = variants of: B1; experiment: self-cleavage kobs at 40 uM GlcN6P; higher = faster cleavage; RNA array
Method in brief: (§1)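 Weighted Michaelis–Menten fits across concentrations supplied kcat and KM, based on kobs from one- or two-exponential decay fits to normalised per-tile medians. The data came from barcoded ribozyme variants transcribed in situ by E. coli RNA polymerase on sequenced MiSeq chips and tracked at 37 °C by a hybridised Cy3 probe. Glucosamine-6-phosphate (40 μM to 10 mM) in HEPES/KCl/Mg(OAc)2 buffer was flowed in.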

glucosamine-6-phosphate [2] = variants of: B1; experiment: self-cleavage kobs at 640 uM GlcN6P; higher = faster cleavage; RNA array
Method in brief: as §1

glucosamine-6-phosphate [3] = variants of: B1; experiment: self-cleavage kobs at 160 uM GlcN6P; higher = faster cleavage; RNA array
Method in brief: as §1

glucosamine-6-phosphate [4] = variants of: B1; experiment: self-cleavage kobs at 2500 uM GlcN6P; higher = faster cleavage; RNA array
Method in brief: as §1

glucosamine-6-phosphate [5] = variants of: B1; experiment: self-cleavage kobs at 10000 uM GlcN6P; higher = faster cleavage; RNA array
Method in brief: as §1

Row | Variant | self-cleavage kobs at 40 uM GlcN6P (glucosamine-6-phosphate [1]) [s⁻¹] | self-cleavage kobs at 640 uM GlcN6P (glucosamine-6-phosphate [2]) [s⁻¹] | self-cleavage kobs at 160 uM GlcN6P (glucosamine-6-phosphate [3]) [s⁻¹] | self-cleavage kobs at 2500 uM GlcN6P (glucosamine-6-phosphate [4]) [s⁻¹] | self-cleavage kobs at 10000 uM GlcN6P (glucosamine-6-phosphate [5]) [s⁻¹]
1 | G44C U47C | < 1e-05 |  |  |  | 
2 | U54G U55G | 0.00108 ± 0.00018 | 0.00673 ± 0.0015 | 0.00148 ± 0.00028 | 0.0105 ± 0.0029 | 
3 | C58A U65G | < 1e-05 |  |  |  | 
4 | G44A C70A | < 1e-05 |  | < 1e-05 | < 1e-05 | < 1e-05
5 | U45A G66U | 4.15e-05 ± 1.3e-05 | 0.000508 ± 0.0001 | 0.000117 ± 3.4e-05 | 0.00104 ± 0.00022 | 0.0016 ± 0.00026
6 | U49C G63A C67G | < 1e-05 |  |  |  | 
7 | G60U U69G | < 1e-05 | < 1e-05 |  |  | < 1e-05
8 | C50U G62C | < 1e-05 | < 1e-05 |  | < 1e-05 | < 1e-05
9 | U54C C67G | 5.95e-05 ± 1.1e-05 | 0.000519 ± 7.3e-05 | 0.000179 ± 2.6e-05 |  | 
10 | C61U C70U | < 1e-05 |  |  |  | 
11 | A53G U57G | < 1e-05 |  |  |  | 
12 | U49G C61U | < 1e-05 |  | < 1e-05 |  | 
13 | G60C U65G | < 1e-05 | < 1e-05 | < 1e-05 |  | 
14 | A52C U56G | < 1e-05 | < 1e-05 | < 1e-05 |  | 
15 | C50G C58A G62C G63C C70A | 4.49e-05 ± 1.7e-05 |  |  |  | 
16 | U54C G62A | < 1e-05 |  |  |  | < 1e-05
17 | G43U G62C | < 1e-05 | < 1e-05 | < 1e-05 | < 1e-05 | < 1e-05
18 | U55C A64U | < 1e-05 |  |  |  | 
19 | A52C G59C | < 1e-05 | < 1e-05 | < 1e-05 |  | 
20 | U45G G60U | < 1e-05 | < 1e-05 |  | < 1e-05 | < 1e-05
21 | A52U U65A | < 1e-05 | < 1e-05 |  |  | 2.95e-05 ± 9.7e-06
22 | U47A U55G | 0.000473 ± 8.1e-05 | 0.00869 ± 0.0018 | 0.000805 ± 0.00018 | 0.0105 ± 0.0022 | 0.0152 ± 0.0031
23 | A52U C68A | < 1e-05 |  |  |  | 

Row | Variant | self-cleavage kobs at 40 uM GlcN6P (glucosamine-6-phosphate [1]) [s⁻¹] | self-cleavage kobs at 640 uM GlcN6P (glucosamine-6-phosphate [2]) [s⁻¹] | self-cleavage kobs at 160 uM GlcN6P (glucosamine-6-phosphate [3]) [s⁻¹] | self-cleavage kobs at 2500 uM GlcN6P (glucosamine-6-phosphate [4]) [s⁻¹] | self-cleavage kobs at 10000 uM GlcN6P (glucosamine-6-phosphate [5]) [s⁻¹]
24 | U57C G63U | < 1e-05 | < 1e-05 | < 1e-05 | < 1e-05 | < 1e-05
25 | A52G C61U | < 1e-05 |  | < 1e-05 | < 1e-05 | 
26 | G51C U65A | < 1e-05 | < 1e-05 | < 1e-05 |  | < 1e-05
27 | A52C C58G G62U C71U | < 1e-05 |  |  | < 1e-05 | 
28 | U46G G60U | < 1e-05 |  | < 1e-05 |  | < 1e-05
29 | U47G A53G | 0.000319 ± 4.7e-05 |  |  |  | 
30 | G59A G66A | < 1e-05 |  | < 1e-05 |  | 
31 | C58U G62C | < 1e-05 | < 1e-05 | < 1e-05 | < 1e-05 | < 1e-05
32 | U49C G66C | < 1e-05 | < 1e-05 | < 1e-05 |  | < 1e-05
33 | U49C G66U | < 1e-05 | < 1e-05 |  | < 1e-05 | < 1e-05
34 | A53U C58U | < 1e-05 |  |  |  | 
35 | U55C U69A | < 1e-05 |  |  |  | 
36 | U55C G62A | < 1e-05 | < 1e-05 | < 1e-05 | < 1e-05 | 
37 | A48U C58G | < 1e-05 |  |  |  | < 1e-05
38 | U45A G60C C71G | < 1e-05 | < 1e-05 |  | < 1e-05 | 
39 | A53U G60C U69C | < 1e-05 |  |  |  | 
40 | A53U C70U | 0.000741 ± 6.7e-05 | 0.00682 ± 0.0013 | 0.00102 ± 0.00023 | 0.00471 ± 0.0013 | 0.0335 ± 0.0084
41 | G43A C61G | < 1e-05 | < 1e-05 | < 1e-05 | < 1e-05 | < 1e-05
42 | G44U C68G | < 1e-05 | < 1e-05 | < 1e-05 |  | < 1e-05
43 | U57G G59C | < 1e-05 | < 1e-05 |  |  | < 1e-05
44 | G51C A64G | < 1e-05 | < 1e-05 | < 1e-05 |  | < 1e-05
45 | G43U A53C | < 1e-05 |  | < 1e-05 |  | 
